Experimental data reported in PubChem BioAssay AID463173 (ICCB-Longwood Screening Facility, Harvard Medical School, 2010).
Among all 52,000 compounds or so, about 1,700 (3.3%) were called active. Cut-off read from the data, not from the text of the source: active = survival mostly below about 52% (no sharp cut-off); inactive = mostly above about 56%. The list shows a part of the results.

system: Wild type; assay: S. aureus survival, RN4220 and DeltatarO strains – OD600, teichoic acid synthesis inhibitors, primary screen (AID 463173); details: S. aureus RN4220 wild type/DeltatarO growth, OD600, 18 h, stronger effect = lower value, screened at 18.75 µg/mL (by protocol)

Structure (SMILES)	survival
Cc1ccccc1NS(=O)(=O)c1nnc(NC(=O)c2ccco2)s1	inactive: 78%
CCOC(=O)c1c(S(=O)(=O)NCC(=O)N(C)c2ccc(C)cc2)c(C)n(C)c1C	inactive: 119%
CC(C)Oc1ccc(C(=O)Nc2nonc2-c2ccc(OC(C)C)cc2)cc1	inactive: 92%
COC(=O)CCN(C(=O)C1CCN(S(=O)(=O)c2c(C)noc2/C=C/c2ccccc2F)CC1)c1ccccc1	inactive: 126%
CCc1cccc(NC(=O)Cn2nc3c4cc(F)ccc4n(Cc4cccc(C)c4)cc-3c2=O)c1	inactive: 82%
O=C(O)c1ccccc1SC1CC(=O)N(Cc2ccccc2)C1=O (stereo unspecified)	inactive: 97%
CCc1ccccc1N1C(=O)N(CC(=O)c2ccc(OC)cc2)c2ccccc2S1(=O)=O	inactive: 71%
O=c1[nH]c2cc3c(cc2cc1CN(Cc1ccco1)S(=O)(=O)c1cccc(C(F)(F)F)c1)OCO3	inactive: 112%
CCOC(=O)c1cc(C)n(CC2CCC(C(=O)Nc3cc(OC)cc(OC)c3)CC2)c1C (stereo unspecified)	inactive: 148%
COc1cc(NC(=O)CC(c2cccs2)N2Cc3ccccc3C2=O)cc(OC)c1OC (stereo unspecified)	inactive: 22%
CCCNC(=O)c1cnc2c(-c3ccc(OCC)c(OCC)c3)c(C)nn2c1-c1ccccc1	inactive: 76%
CC(C)n1c(=N)c(C(=O)NC2CCCCC2)cc2c(=O)n3ccccc3nc21	inactive: 73%
Clc1cccc(CSc2nnc(C3CCNCC3)o2)c1	inactive: 109%
COc1ccc(NC(=O)C(=O)NCc2ccco2)cc1	inactive: 85%
CC(=O)NNc1nc(Cl)nc(N(C)C)n1	inactive: 103%
CCN(CCCNC(=O)Cn1ncc2c([nH]c3ccc(C)cc32)c1=O)Cc1ccccc1	inactive: 55%
CC(=O)c1ccc(NC(=O)Cn2nc(C(F)(F)F)c3c2CCCC3)cc1	inactive: 64%
COc1cccc(CN(C(=O)c2cccc(C)c2)C2CCS(=O)(=O)C2)c1 (stereo unspecified)	inactive: 86%
COc1ccc(OC)c(-c2noc(N3CCN(c4cccc(C)c4C)CC3)n2)c1	inactive: 85%
CCSc1nn(CC(=O)Nc2cccc(Cl)c2)c(N)c1S(=O)(=O)c1ccc(OC)cc1	inactive: 81%
COC(=O)c1ccccc1NC(=O)C1=C(C)C(=O)OC12CCC(C)CC2 (stereo unspecified)	active: -6%
Cc1ccc(CSc2oc(-c3cccs3)nc2S(=O)(=O)c2ccc(C)cc2)cc1	inactive: 128%

Structure (SMILES)	survival
COC(=O)CC1Oc2ccc(C)cc2-n2cc(-c3ccc(C)cc3)nc21 (stereo unspecified)	inactive: 47%
Cc1cc(N2CCC3CCCC(C2)N3Cc2ccccc2)n2c(n1)nc1ccccc12 (stereo unspecified)	inactive: 116%
CCc1ccc(NC(=O)Cn2c(=O)n(-c3cc(C)cc(C)c3)c(=O)c3oc4ccccc4c32)cc1	inactive: 79%
COc1ccc(-c2nc(SCC(=O)Nc3ccc4c(c3)OCCO4)c(-c3ccccc3)[nH]2)cc1	inactive: 66%
CCCN(CCC)C(=O)Cn1c(=O)n(Cc2ccc(C(=O)NCCc3ccc(Cl)cc3)cc2)c(=O)c2ccccc21	inactive: 113%
COc1ccccc1Cn1cc(C(=O)c2ccc(C)cc2)c(=O)c2cc(F)cc(F)c21	inactive: 81%
CCOC(=O)/C(C#N)=C/c1ccc(-c2ccc(C)cc2)o1	inactive: 122%
Cc1ccc(-n2nc3c(=O)n(CCCC(=O)NC(C)c4ccccc4)nc(C)c3c2C)cc1 (stereo unspecified)	inactive: 60%
CC(C)CC(=O)Nc1nnc(S(=O)(=O)N2CCc3ccccc32)s1	inactive: 81%
Cc1ccc2oc(C(=O)Nc3sc4c(c3C(=O)NCc3cccnc3)CCCC4)cc(=O)c2c1	inactive: 95%
COc1ccccc1NS(=O)(=O)c1cc2c(cc1Cl)NC(=O)CO2	inactive: 83%
CCOc1ccc(CCNC(=O)CSc2cc(=O)n(C)c3ccc(Cl)cc23)cc1OCC	inactive: 119%
O=C1CN(C(=O)Nc2ccccc2C(F)(F)F)C(c2ccccc2)c2c(sc3c2CCCC3)N1 (stereo unspecified)	inactive: 83%
c1ccc(C2CN3CCSC3=N2)cc1 (stereo unspecified)	inactive: 109%
CC(C)Oc1ccc(CNC(=O)c2ccc(Cn3c(=O)c4cccn4c4cccnc43)cc2)cc1	inactive: 85%
Cc1ccc(NC(=O)CSc2ccc(-c3sc(-c4ccccc4)nc3C)nn2)cc1F	inactive: 43%
CCN1C(=O)C2(c3ccccc31)c1c(oc3ccc(F)cc3c1=O)C(=O)N2CCCOC (stereo unspecified)	inactive: 84%
CCCc1cnc2c(c1SCc1ccc(C(F)(F)F)cc1)c(=O)n(C)c(=O)n2C	inactive: 53%
O=C1C=C(N2CCCCC2)C2(CCCCC2)O1	inactive: 120%
CN(C)S(=O)(=O)c1ccc(C(=O)Nc2ccc(-n3nncc3-c3ccccc3)cc2)cc1	inactive: 119%
Cc1cccc(N2CCN(C(=O)CCSCc3ccccc3F)CC2)c1C	inactive: 81%
COc1ccccc1N1CCN(C(=O)Cn2ncc3c(=O)oc4ccc(C)cc4c32)CC1	inactive: 89%

Structure (SMILES)	survival
O=C(Cn1cc(/C=N/NC(=O)c2ccc(Oc3ccc(O)cc3)cc2)c2ccccc21)NCc1ccco1	inactive: 109%
Cc1cccc(CNC(=O)c2cnc3sc(N4CCCCCC4)nn3c2=O)c1	inactive: 125%
COc1ccc(-c2nsc(NC(=O)c3oc4cc(C)c(C)cc4c3C)n2)cc1	inactive: 94%
Cc1ccc(N(Cc2cccs2)C(=O)COc2cccc(C)c2)cc1	inactive: 85%
CC(=O)c1ccc(NC(=O)Cn2c(=O)n(Cc3ccco3)c(=O)c3sc4ccccc4c32)cc1	inactive: 78%
CCN1CCN(c2cc(C)c3cc(NC(=O)c4cc(Cl)ccc4OC)ccc3n2)CC1	active: 2%
Cc1nn2c(=O)cc(COC(=O)CNC(=O)c3ccc(F)cc3)nc2s1	inactive: 66%
COc1ccc(C2=NC(C)(C)N(CC(=O)Nc3ccc(F)c(F)c3)C2=O)cc1	inactive: 83%
CCc1nnc(SCC(=O)N2c3ccc(F)cc3CCC2C)n1C (stereo unspecified)	inactive: 120%
COc1ccc(C(C(=O)NCc2cccs2)N(Cc2ccco2)C(=O)Cn2nnc(-c3cccs3)n2)cc1 (stereo unspecified)	inactive: 117%
COc1cccc(OC)c1C(=O)Nc1ccc(S(=O)(=O)Nc2nccc(C)n2)cc1	inactive: 65%
Cc1ccc(-n2ncc(C(=O)NCCCN3CCCCC3)c2C2CCN(C(=O)OC(C)(C)C)CC2)cc1	inactive: 74%
O=C(O)CCCNC1=NCCN1	inactive: 99%
Cc1ccc(OCC(O)Cn2c(=N)n(CCN3CCCCC3)c3ccccc32)cc1 (stereo unspecified)	inactive: 74%
CCOC(=O)c1c(C)n(-c2ccccc2)c2ccc(OC(=O)c3ccccc3NC(=O)C(C)(C)C)cc12	inactive: 65%
Cc1ccc(NC(=O)c2c(C)nc3sc(C(=O)Nc4ccc(F)cc4)c(N)c3c2-c2ccccc2Cl)c(C)c1	inactive: 65%
CCc1ccc(S(=O)(=O)c2cn(CC)c3cc(N4CCOCC4)c(F)cc3c2=O)cc1	inactive: 69%
CC(=O)c1ccc(NC(=O)Cn2cc3c(n2)CCCC3)cc1	inactive: 82%
O=C(O)c1cc(-c2ccc(C(F)(F)F)cc2)nc2n[nH]c(-c3ccccc3)c12	inactive: 87%
COc1ccccc1C(=O)Nc1nnc(S(=O)(=O)N(C)c2ccc(Cl)cc2)s1	inactive: 107%
COc1ccc(Cl)cc1NC(=O)c1ccc2c(c1)CCCN2S(C)(=O)=O	inactive: 79%
CCN(CC)CCN1C(=O)C2C3c4ccccc4C(c4ccccc43)C2C1=O (stereo unspecified)	inactive: 113%

Structure (SMILES)	survival
CCOc1ccc(CN2CCN(c3ncnc4sc5c(c34)CC(C)CC5)CC2)cc1 (stereo unspecified)	inactive: 80%
CCOc1ccc2c(c1)c(=O)c(S(=O)(=O)c1ccccc1)cn2CC(=O)Nc1ccccc1OC	inactive: 72%
Cc1ccc(CNC(=O)C2CCN(S(=O)(=O)c3ccc4c(c3)CCCN4C(=O)C3CCC3)CC2)cc1	inactive: 99%
C=C(C)c1cccc(C(C)(C)NC(=O)N(C)C2CCN(C)CC2)c1	inactive: 105%
Cc1nc(-c2ccccc2)sc1CCNS(=O)(=O)c1ccccc1	inactive: 69%
O=C(NCCSc1c(-c2ccccc2)[nH]c2ccccc12)c1ccc(S(=O)(=O)N2CCOCC2)cc1	inactive: 71%
Cc1ccccc1Cn1c(CN2CCC(C(=O)NCCN(C)C)CC2)cc2ccccc21	inactive: 121%
CCOc1ccc(S(=O)(=O)N(CC(=O)NCCc2ccc(OC)c(OC)c2)c2ccccc2)cc1	inactive: 81%
COc1cccc(NC(=O)c2cc3c(=O)n(C)c4ccccc4c3n2C)c1	inactive: 93%
O=C(c1cnn2c1NC(c1ccc(Br)cc1)CC2C(F)(F)F)N1CCCC1 (stereo unspecified)	inactive: 95%
CCCCNC(=O)c1cnn2c(C)c(Cc3c(F)cccc3Cl)c(C)nc12	inactive: 131%
Cc1ccccc1NC(=O)CN1C(=O)C(C)(C)c2ccccc21	inactive: 59%
CCCCn1c(SCC(=O)N2c3ccccc3Sc3ccccc32)nc2c1c(=O)n(C)c(=O)n2C	inactive: 99%
Cc1cccc(C)c1NC(=O)Cn1c(=O)n(CCC(=O)NCc2ccccc2Cl)c(=O)c2sccc21	inactive: 94%
COc1ccc(OC)c(CCNC(=O)c2c(C)oc3ncn(C)c(=O)c23)c1	inactive: 64%
COc1cc(NC(=O)Cc2noc3ccccc23)cc(OC)c1OC	inactive: 97%
O=C(CN1C(=O)COc2ccc(S(=O)(=O)N3CCCCCC3)cc21)N1CCN(c2ccc(Cl)cc2)CC1	inactive: 136%
CCOC(=O)c1ccc(NC(=O)CC(C)n2nc(C)cc2C)cc1 (stereo unspecified)	inactive: 146%
Cc1ccc(C)c(Nc2nn3c(=O)c4ccc(C(=O)NCc5ccccc5)cc4nc3s2)c1	inactive: 66%
COc1ccc(CNC(=O)c2cc(-c3ccc(Br)s3)nc3ccccc23)cc1	inactive: 84%
